Experimental findings from PubChem BioAssay AID294 (DTP/NCI, 2004) are described below.

In the assay the test system is MX-1 breast xenograft, nude mice, tumor weight change. As to the kind of experiment: NCI In Vivo Anticancer Drug Screen. Data for tumor model Human Mammary Carcinoma MX-1 Xenograft (subcutaneous) in NU/NU Swiss (nude) mice. The settings on record: endpoint: optimum tumor weight change, higher = larger tumour. Here is the method: The antitumor activity of compounds was measured in mice bearing transplantable tumors. Survival or tumor size were measured and the results are expressed as the measurement made in the treated group (T) divided by the measurement made in the vehicle treated control group (C). The tumor model used in this assay is Human Mammary Carcinoma MX-1 Xenograft (subcutaneous) in NU/NU Swiss (nude) mice

Certain results were filed several times, with different values. The list is limited to them. There may be further records. Results that share an entry are repeated measurements in other runs, samples, wells, individuals or studies.

On to `CN(C)c1nc(N(C)C)nc(N(C)C)n1`, for which the T/C (dose: 120.0 mg/kg/injection, schedule: Q07DX005 (ip), vehicle: Klucel (hydroxypropylcellulose) (HPC)) was -69 % of control and 17 % of control.
Take `CN(CO)c1nc(N(C)CO)nc(N(C)CO)n1`: the T/C is 53 % of control and 79 % of control (dose: 50.0 mg/kg/injection, schedule: Q04DX005 (ip), vehicle: saline); -52 % of control and 4 % of control (dose: 100.0 mg/kg/injection, schedule: Q04DX005 (ip), vehicle: saline).
On to `O=S(CCCl)CCCl`, for which the T/C (dose: 50.0 mg/kg/injection, schedule: Q04DX003 (ip), vehicle: Klucel (hydroxypropylcellulose) (HPC)) is 37 % of control and 72 % of control.
